From the RNAGym collection of RNA variant scans (doi:10.1093/nar/gkz1192)
The source gives no read counts; variants with many changes may rest on few reads.

B1: CPEB3 Ribozyme (parent)
chain: UAACAGGGGGCCACAGCAGAAGCGUUCACGUCGCAGCCCCUGUCAGAUUCUGGUGAAUCUGCGAAUUCUGCUGUAUAUCUC

Variants of: B1
Test: self-cleavage, relative activity (ratio to wild type); higher = more cleavage; in vitro, sequencing
How it was run: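 For each CPEB3 ribozyme variant, relative activity is its cleaved/total read fraction divided by the unmutated ribozyme's. Barcoded error-prone PCR libraries were transcribed by T7 RNA polymerase (5 hours, 37°C) and held in DNase I for 15 min before an EDTA stop, with cleavage occurring throughout. Template-switching reverse transcription and Illumina sequencing were used to read the RNAs. A 5-read minimum applied, and results are the mean of three batches.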

Which self-cleavage does the source give for UAACAGAGGGCCACAGCAGAGGCGUUCACGUCGCAGCCCCUGUCAGAUUCUGGGGAAUCUGCGGAUUCUGCUGUGUAUCUC [G7A A21G U54G A64G A75G] here?
Its self-cleavage is 0.03.

For UAACAGAGGGCCACAGCAGAGGCGUUCACGUCGCAGCCCCUGUCAGAUUCUGGUGAAUCAGCGUAUUCUGCAGUAUACCUC [G7A A21G U60A A64U U72A U78C], which self-cleavage is on record?
The self-cleavage was 0.04.

With UAACAGAGGGCCACAGCAGAGGCGUUCACGUCGCAGCCCCUGUCAGAUUCUGGUGAAUCUGCGAACUCUGCUGUAUAUCUC [G7A A21G U66C] as the variant, how does the self-cleavage read?
The self-cleavage was 0.22.

Which self-cleavage does the source give for UAACAGAGGGCCACAGCAGAGGCGUUCACGUCGCAGCCCCUGUCAGAUUCUGGUGAAUCUGCGAAUUCUGCUGUAUAUCAC [G7A A21G U80A] here?
Its self-cleavage is 0.32.

Which self-cleavage does the source give for UAACAGAGGGCCACAGCAGAUGCGUUCACGUUGCAGCCCCUGUCAGAUUCUGGUGAAUCUGCGAAUUCUGCCGUAUAUCUC [G7A A21U C32U U72C] here?
Its self-cleavage is 0.12.

For UAACAGAGGGCCACAGCAGAUGCGUUCACGUCACGGCCCCUGUCAGAUUCUGGUGAAUCUGCGAAUUCUGCUGUAUAUCCC [G7A A21U G33A A35G U80C], which self-cleavage is on record?
The self-cleavage was 0.19.

Which self-cleavage does the source give for UAACAGAGGGCCACAGCAGAUGCGUUCACGUCGCAGCCCCUGUCAGAUUCUGGUGAAUCUGCAAAUUCAGCUGUAUAUCUC [G7A A21U G63A U69A] here?
The self-cleavage was 0.06.

With UAACAGAGGGCCACAGCAGAAGCGUUCCCGUCGCAGCCCCUGUCAGAUUCUGGUGAAUCUGCGAAUUCUGCUGUACAUCUC [G7A A28C U76C] as the variant, how does the self-cleavage read?
Its self-cleavage is 0.08.

For UAACAGAGGGCCACAGCAGAAGCGUUCGCGUCGCAGCCCCUGUCAGAUUCUGGUGUAUCUGCGAAUCCUGCUGUACAUCUC [G7A A28G A56U U67C U76C], which self-cleavage is on record?
Its self-cleavage is 0.08.

With UAACAGAGGGCCACAGCAGAAGCGUUCGCGGCGCAGCCCCUGUCAGAUCCUAGUGAAUCUGCGAAUUCUGCUGUAUAUCUC [G7A A28G U31G U49C G52A] as the variant, how does the self-cleavage read?
The self-cleavage was 0.12.

Which self-cleavage does the source give for UAACAGAGGGCCACAGCAGAAGCGUUCGCGUCGCAGCCCCUGUCAGAUACCGGUGAAUCUGCGAAUUCUGCUGUAUAUCCC [G7A A28G U49A U51C U80C] here?
The self-cleavage was 0.06.

With UAACAGAGGGCCACAGCAGAAGCGUUCGCGUCGCAGCCCCUGUCAGAUACUGGUGAAUCUGCGAAUUCUGCUGUAUAUCCC [G7A A28G U49A U80C] as the variant, how does the self-cleavage read?
Its self-cleavage is 0.15.

For UAACAGAGGGCCACAGCAGAAGCGUUCGCGUCGCAGCCCCUGUCAGAUUCUGGUGAAUCUGCGAAUCCUGCUGUAUAUCUC [G7A A28G U67C], which self-cleavage is on record?
The self-cleavage was 0.07.

Which self-cleavage does the source give for UAACAGAGGGCCACAGCAGAAGCGUUCUCGUCGCGGCCCCUGUCAGAUUCUGGUGAAUCUGUGAAUUCUGCUGAAUAUCUC [G7A A28U A35G C62U U74A] here?
The self-cleavage was 0.05.

Which self-cleavage does the source give for UAACAGAGGGCCACAGCAGAAGCGUUCUCGUCGCGGCCCCUGUCAGACUCUGGUGAGUCUGCGAAUUCUGCUGUAUAUCUC [G7A A28U A35G U48C A57G] here?
Its self-cleavage is 0.09.

For UAACAGAGGGCCACAGCAGAAGCGUUCUCGUCGCAGCCCCUGUCGGAUUCUGGUGGAUCUGCGAAUUCUGCUGUAUAUCUC [G7A A28U A45G A56G], which self-cleavage is on record?
Its self-cleavage is 0.06.

For UAACAGAGGGCCACAGCAGAAGCGUUCUCGUCGCAGCUCCUGUCAGGUUCUGGUGAAUCUGCGAAUUCUGCUGUAUAUCUC [G7A A28U C38U A47G], which self-cleavage is on record?
The self-cleavage was 0.07.

For UAACAGAGGGCCACAGCAGAAGCGUUCACGUCGCGGCCCCUGUCAGAUCCUGGUGAAUCUGCGAAUUCUGCUGCUUUUCUC [G7A A35G U49C U74C A75U A77U], which self-cleavage is on record?
Its self-cleavage is 0.08.

Which self-cleavage does the source give for UAACAGAGGGCCACAGCAGAAGCGUUCACGUCGCGGCCCCUGUCAGAUUCUGGUGAAUCAGCGAAUACUGCUGUAUACCUC [G7A A35G U60A U67A U78C] here?
Its self-cleavage is 0.11.

With UAACAGAGGGCCACAGCAGAAGCGUUCACGUCGCGGCCCCUGUCAGAUUCUGGUGAAUCUGCGAAUUCUGCUGCAUAUCUC [G7A A35G U74C] as the variant, how does the self-cleavage read?
Its self-cleavage is 0.42.

Which self-cleavage does the source give for UAACAGAGGGCCACAGCAGAAGCGUUCACGUCGCUGCCCAUGUCGGAUUCUGGUGGAUCUGCUAAUUCUGCUGUAUAUCUC [G7A A35U C40A A45G A56G G63U] here?
Its self-cleavage is 0.04.

With UAACAGAGGGCCACAGCAGAAGCGUUCACGUCGCUGCCCCAGUCAGAUUCUGGUGAAUCUGCGAGUUCUGCUGUAUAUCUC [G7A A35U U41A A65G] as the variant, how does the self-cleavage read?
The self-cleavage was 0.08.

For UAACAGAGGGCCACAGCAGAAGCGUUCACGUCGCAGCCCCUGUCGGAAUCUGGUGAAUCUGCGAAUUCUGCUGUAUACCUC [G7A A45G U48A U78C], which self-cleavage is on record?
Its self-cleavage is 0.03.

Which self-cleavage does the source give for UAACAGAGGGCCACAGCAGAAGCGUUCACGUCGCAGCCCCUGUCGGAUUCUGGAGAAUCAGCGAAUUCUGCUGUAUACCCC [G7A A45G U54A U60A U78C U80C] here?
The self-cleavage was 0.04.

Which self-cleavage does the source give for UAACAGAGGGCCACAGCAGAAGCGUUCACGUCGCAGCCCCUGUCGGAUUCUGGUGAAUCCGCGAAUUCUGCUGUUUAUCUC [G7A A45G U60C A75U] here?
The self-cleavage was 0.13.

With UAACAGAGGGCCACAGCAGAAGCGUUCACGUCGCAGCCCCUGUCGGAUUCUGGUGAAUCCGCGAAUUCAGCUGUAUAUCUC [G7A A45G U60C U69A] as the variant, how does the self-cleavage read?
Its self-cleavage is 0.05.

For UAACAGAGGGCCACAGCAGAAGCGUUCACGUCGCAGCCCCUGUCGGAUUCUGGUGAAUCUGCGAAUUCUGCAGUAUAUCUC [G7A A45G U72A], which self-cleavage is on record?
The self-cleavage was 0.14.

With UAACAGAGGGCCACAGCAGAAGCGUUCACGUCGCAGCCCCUGUCUGAUUGUGGUGAGUCUGCGAAUUCUGCUGUAUAUCUC [G7A A45U C50G A57G] as the variant, how does the self-cleavage read?
The self-cleavage was 0.07.

With UAACAGAGGGCCACAGCAGAAGCGUUCACGUCGCAGCCCCUGUCUGAUUCUGGUGAAUCUGCGAAUUCUGCUGUAUAGCUC [G7A A45U U78G] as the variant, how does the self-cleavage read?
The self-cleavage was 0.23.

With UAACAGAGGGCCACAGCAGAAGCGUUCACGUCGCAGCCCCUGUCAGCCUCUGGUGUAUCUGCGAAUUCUGCCGUAUAUCAC [G7A A47C U48C A56U U72C U80A] as the variant, how does the self-cleavage read?
The self-cleavage was 0.05.

Which self-cleavage does the source give for UAACAGAGGGCCACAGCAGAAGCGUUCACGUCGCAGCCCCUGUCAGGCUCUGGUGAAUCUGCGAAUUCUGCUGUAUAUCUC [G7A A47G U48C] here?
Its self-cleavage is 0.05.

With UAACAGAGGGCCACAGCAGAAGCGUUCACGUCGCAGCCCCUGUCAGGUUCUGGUGAACCUGCGAUUUCUGCUGUAUAUCUC [G7A A47G U58C A65U] as the variant, how does the self-cleavage read?
The self-cleavage was 0.08.

Which self-cleavage does the source give for UAACAGAGGGCCACAGCAGAAGCGUUCACGUCGCAGCCCCUGUCAGUUUCUGGUGGAUCUGCGAAUUCUGCUGUAUAUCUC [G7A A47U A56G] here?
The self-cleavage was 0.18.

For UAACAGAGGGCCACAGCAGAAGCGUUCACGUCGCAGCCCCUGUCAGAUUCUGGUGAGCCUGCGAAUUCUGCCGUAUAUCUC [G7A A57G U58C U72C], which self-cleavage is on record?
Its self-cleavage is 0.4.
